The other results are listed elsewhere or left out. The data describe in vitro nicking of single-stranded DNA by Rep domains at 3 µM enzyme and 37 °C for 1 h; the strands have 90 letters, of which the middle is given. Uncut reads are compared with the no-enzyme pool on a log2 scale; the lower, the more was cut; hits are not called. The scaling is to total reads; where an enzyme cuts many sequences, the uncut ones exceed 0.
What was measured:
Assay in all cases: uncleaved DNA left, log2 of reads against the no-enzyme library (log2 ratio); higher = less cleavage (more negative = more Rep cleavage of the k-mer); sequences stand for … in CTCGTCCG…ACCGGAGA
[1] = system: T1, Rep nickase domain of Muscovy duck circovirus
T1 sequence (residues 1-111 of Rep, tag left off): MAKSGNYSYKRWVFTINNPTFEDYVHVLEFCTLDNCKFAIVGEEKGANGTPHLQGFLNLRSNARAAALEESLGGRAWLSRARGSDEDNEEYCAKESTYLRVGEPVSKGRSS
Procedure: (§1)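 A pool of 90-nt single-stranded DNAs with seven random bases just before the constant AC of the nick site (name = the seven bases) was cut by 3 µM recombinant His6-SUMO-tagged Rep nickase domain (300 nM DNA, 50 mM HEPES pH 8.0, 50 mM NaCl, 1 mM MnCl2, 1 h, 37 °C, three replicates). Uncut DNA was amplified and sequenced.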

[2] = system: T2, Rep nickase domain of banana bunchy top virus
T2 sequence (residues 1-94 of Rep, tag left off): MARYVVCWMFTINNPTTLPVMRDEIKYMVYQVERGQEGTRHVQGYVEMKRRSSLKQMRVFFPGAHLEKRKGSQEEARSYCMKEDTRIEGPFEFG
Procedure: as §1

[3] = system: T3, Rep nickase domain of cabbage leaf curl virus
T3 sequence (residues 1-116 of Rep, tag left off): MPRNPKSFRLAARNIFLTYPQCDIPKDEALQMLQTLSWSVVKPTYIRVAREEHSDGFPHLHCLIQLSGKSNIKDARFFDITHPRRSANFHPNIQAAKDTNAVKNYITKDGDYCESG
Procedure: as §1

[4] = system: T4, Rep nickase domain of chickpea chlorotic dwarf virus
T4 sequence (residues 1-124 of Rep, tag left off): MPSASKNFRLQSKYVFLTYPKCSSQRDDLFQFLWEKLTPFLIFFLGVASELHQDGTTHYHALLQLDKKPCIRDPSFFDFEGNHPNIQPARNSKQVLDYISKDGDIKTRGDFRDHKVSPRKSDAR
Procedure: as §1

[5] = system: T5, Rep nickase domain of faba bean necrotic yellows virus
T5 sequence (residues 1-98 of Rep, tag left off): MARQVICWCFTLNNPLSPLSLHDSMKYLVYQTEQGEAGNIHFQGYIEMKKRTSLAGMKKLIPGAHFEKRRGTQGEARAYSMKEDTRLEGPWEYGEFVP
Procedure: as §1

[6] = system: T6, Rep nickase domain of maize striate mosaic virus
T6 sequence (residues 1-117 of Rep, tag left off): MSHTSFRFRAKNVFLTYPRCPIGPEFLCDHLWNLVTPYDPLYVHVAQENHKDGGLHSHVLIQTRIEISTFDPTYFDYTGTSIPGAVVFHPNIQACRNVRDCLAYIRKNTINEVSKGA
Procedure: as §1

[7] = system: T7, Rep nickase domain of porcine circovirus 2
T7 sequence (residues 2-116 of Rep, tag left off): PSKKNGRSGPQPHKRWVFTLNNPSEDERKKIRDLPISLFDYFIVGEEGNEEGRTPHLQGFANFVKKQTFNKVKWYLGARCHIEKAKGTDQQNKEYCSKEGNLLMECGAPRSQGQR
Procedure: as §1

[8] = system: T8, Rep nickase domain of tomato yellow leaf curl virus
T8 sequence (residues 1-136 of Rep, tag left off): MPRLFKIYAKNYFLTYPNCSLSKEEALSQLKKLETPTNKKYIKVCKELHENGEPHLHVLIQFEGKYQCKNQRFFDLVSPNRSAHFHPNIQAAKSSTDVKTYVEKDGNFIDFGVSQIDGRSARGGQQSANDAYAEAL
Procedure: as §1

[9] = system: T9, Rep nickase domain of wheat dwarf virus
T9 sequence (residues 1-137 of Rep, tag left off): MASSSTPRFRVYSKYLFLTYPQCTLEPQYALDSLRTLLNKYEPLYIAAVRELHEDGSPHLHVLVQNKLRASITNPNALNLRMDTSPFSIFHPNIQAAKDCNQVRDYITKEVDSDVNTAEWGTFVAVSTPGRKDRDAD
Procedure: as §1

Row | Sequence | uncleaved DNA left (log2) [1] | uncleaved DNA left (log2) [2] | uncleaved DNA left (log2) [3] | uncleaved DNA left (log2) [4] | uncleaved DNA left (log2) [5] | uncleaved DNA left (log2) [6] | uncleaved DNA left (log2) [7] | uncleaved DNA left (log2) [8] | uncleaved DNA left (log2) [9]
1 | CTTCCTG | -0.161 | -0.157 | -0.293 | -0.91 | -0.219 | -0.719 | -0.0703 | -0.0266 | -0.0641
2 | GGCTCGG | 0.0208 | 0.128 | 0.471 | 1.21 | 0.0315 | 1.92 | 0.0403 | 0.00651 | 0.0463
3 | CTACATC | 0.14 | 0.27 | 0.038 | -1.24 | 0.0294 | -0.486 | 0.24 | 0.0712 | 0.193
4 | AGCACAG | 0.0703 | 0.188 | 0.0781 | 0.456 | -0.0243 | 0.989 | 0.0963 | 0.025 | 0.135
5 | TTTAGAG | 0.0349 | 0.0509 | -0.336 | -0.552 | 0.024 | -1.13 | 0.183 | 0.0884 | -0.0487
6 | CAAAATC | 0.00344 | 0.0353 | -0.266 | -0.886 | -0.0148 | -0.907 | -0.0121 | 0.0667 | 0.219
7 | TAAGGGG | 0.108 | 0.0232 | 0.274 | 0.567 | 0.0162 | 0.486 | 0.195 | -0.0891 | 0.0233
8 | ATCAAAA | -0.0854 | 0.00926 | -0.0873 | -0.0212 | -0.0162 | -0.738 | -0.0136 | -0.0852 | -0.0428
9 | TTATAGA | 0.215 | 0.0674 | 0.0973 | -0.0864 | 0.0791 | -0.707 | 0.0962 | 0.113 | 0.0799
10 | TTTCACT | -0.293 | -0.0809 | 0.0315 | -2.15 | -0.0955 | -0.0945 | -1.27 | -0.011 | -0.114
11 | CAGATCA | -0.0579 | 0.0613 | 0.119 | -1.39 | -0.128 | -0.00291 | -0.863 | -0.0384 | 0.12
12 | ATCACTA | -0.0812 | -0.0259 | -0.201 | -1.39 | -0.0851 | -0.761 | -0.227 | -0.108 | -0.0437
13 | CTGAGAC | -0.133 | -0.124 | 0.288 | 0.663 | -0.0967 | 0.209 | -0.0226 | -0.154 | -0.0879
14 | GGGGGCT | 0.116 | -0.0125 | 0.876 | 1.74 | 0.0363 | 2.26 | 0.235 | 0.0256 | 0.146
15 | CCCTCTG | -0.254 | -0.0947 | -0.411 | -0.55 | -0.242 | -0.595 | -0.0577 | -0.165 | -0.229
16 | CGGAAGT | 0.0565 | -0.0104 | 0.134 | 0.29 | 0.0303 | -0.0819 | 0.0109 | 0.0119 | 0.101
17 | GTTGCCC | -0.0495 | 0.00324 | 0.158 | 0.508 | 0.0857 | 0.259 | -0.108 | 0.0224 | 0.0147
18 | CATCGCC | 0.135 | 0.0214 | -0.224 | -0.221 | 0.174 | -0.784 | 0.187 | 0.0815 | 0.0848
19 | CCGGAAC | 0.0514 | 0.0751 | 0.335 | 0.5 | 0.111 | 1.11 | 0.138 | -0.126 | -0.0195
20 | GTAATAA | -0.0452 | 0.0268 | 0.241 | 0.79 | -0.0375 | 1.66 | 0.00118 | -0.00913 | -0.0166
21 | CTTCAGT | 0.0479 | 0.0137 | -0.206 | -0.755 | -0.0718 | -0.969 | -0.116 | 0.0537 | 0.0659
22 | TTAAGGC | 0.113 | 0.105 | -0.726 | -2.04 | 0.034 | 0.304 | 0.108 | 0.0725 | -0.0349
23 | GTGACAG | -0.15 | 0.0427 | 0.707 | 1.8 | -0.0367 | 2.07 | 0.0429 | -0.0514 | -0.00745
24 | CGTAATT | -0.0935 | -0.1 | 0.0218 | -1.77 | 0.00729 | -0.327 | -1.65 | 0.111 | -0.0429
25 | TAGAAGC | -0.0775 | -0.000836 | -0.3 | -0.545 | 0.0358 | -1.16 | 0.0298 | 0.123 | -0.0769
26 | CAAGTAT | 0.0828 | -0.0476 | -0.386 | -1.14 | 0.0435 | 0.41 | -0.00941 | -0.0962 | -0.117
27 | TATCAGT | -0.0289 | -0.136 | -0.444 | -1.53 | -0.0438 | -1.09 | -0.928 | -0.131 | -0.132
28 | GGCCGTT | -0.0152 | -0.00715 | 0.634 | 1.22 | -0.0628 | 1.74 | -0.0691 | -0.00663 | 0.169
29 | TGAAACT | 0.0359 | 0.0552 | 0.326 | -1.97 | 0.0457 | 0.857 | -0.0665 | 0.0497 | -0.00667
30 | CGGATAC | 0.0862 | 0.0706 | -0.0341 | 0.519 | 0.0545 | -0.113 | 0.273 | 0.0838 | 0.0482

Reference: the supplement of paper PMC7826260
